Where a chain is given by its changes, count along the chain named.

The text below walks through data of patent US10005846B2, “Anti-transglutaminase 2 antibodies” (MEDICAL RESEARCH COUNCIL TECHNOLOGY, priority 2012, dated 2018).

Format in all cases: biochemical
Assay [1] deals with T1, human TG2 (Homo sapiens, UniProt P21980).
T1 sequence (P21980 1-687): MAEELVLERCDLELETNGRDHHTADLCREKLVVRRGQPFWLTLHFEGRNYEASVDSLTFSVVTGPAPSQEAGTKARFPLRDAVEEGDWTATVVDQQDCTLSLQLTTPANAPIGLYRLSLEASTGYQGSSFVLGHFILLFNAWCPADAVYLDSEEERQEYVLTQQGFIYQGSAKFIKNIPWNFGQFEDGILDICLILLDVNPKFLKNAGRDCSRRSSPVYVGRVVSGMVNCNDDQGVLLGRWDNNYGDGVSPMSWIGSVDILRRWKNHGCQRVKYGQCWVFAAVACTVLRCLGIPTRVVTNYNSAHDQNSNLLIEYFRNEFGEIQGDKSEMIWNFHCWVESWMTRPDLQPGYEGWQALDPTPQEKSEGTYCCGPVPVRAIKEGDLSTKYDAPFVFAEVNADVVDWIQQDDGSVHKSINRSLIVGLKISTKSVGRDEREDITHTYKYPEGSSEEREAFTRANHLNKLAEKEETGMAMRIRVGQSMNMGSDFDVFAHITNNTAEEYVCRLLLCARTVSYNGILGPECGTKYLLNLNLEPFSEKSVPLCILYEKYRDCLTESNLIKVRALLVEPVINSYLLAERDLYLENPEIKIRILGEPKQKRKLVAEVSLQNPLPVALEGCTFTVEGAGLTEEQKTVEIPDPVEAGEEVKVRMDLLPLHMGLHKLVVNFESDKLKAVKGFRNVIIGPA
The assay can be described thus: 3H-putrescine incorporation TG activity assay with recombinant human TG2. To be noted: initial screen of conditioned medium, 100 ng of TG2. As for the experimental part:
(§1) To determine an IC50 value for each antibody against human, rat and mouse the ^3H Putrescine assay was used. 100 ng of human TG2 or 25 ng of mouse and rat TG2 was used to generate a reaction where approximately 3000 cpm of Putrescine were incorporated per hour in 10 ul of the reaction mixture. Serial dilutions of each antibody were then applied starting from adding 500 ng (5 ug/ml final concentration) to the reaction mixture and incubated with the TG2 for 20 minutes prior to activating the reaction. IC50 values were calculated by determining the concentration at which the enzymatic rate of reaction was reduced by 50% using an appropriate curve fit in graphpad prism. Values are expressed as the amount of IgG in […] in the reaction that would inhibit 1 ng of TG2.
(§2) TG activity is measured by the Ca^2+ dependent incorporation of ^3H-putrescine into N′,N′-dimethylcasein. Recombinant human TG2 (100 ng) was pre-incubated for twenty minutes at room temperature with the test sample (conditioned medium or purified IgG) before starting the reaction. […] The rate of reaction was calculated. […]

The target in assay [2] is T1, human TG2. In words: Fluorescence-based transglutaminase assay (dansylated lysine into N,N-dimethylated casein), human TG2. The note with it: 1 nM human TG2. The arrangement: purchased Zedira GmbH T002. As for the experimental part: Transglutaminase activities of purified human (Zedira) or cynomogolus monkey TG2 enzymes (Trenzyme) were measured by incorporation of dansylated lysine K×D (Zedira) into N,N-dimethylated casein (DMC, Sigma). Human or cynomogolus monkey TG2 were diluted in transamidation buffer (25 mM HEPES pH 7.4 containing 250 mM NaCl, 2 mM MgCl2, 5 mM CaCl2, 0.2 mM DTT and 0.05% v/v Pluronic F-127) to 1 nM and 10 nM respectively and mixed with various concentrations of protein-A purified murine, chimeric or humanised TG2 antibodies for 180 min at room temperature in 384-well black microtiter plates (Corning). Reactions were initiated by addition of DMC and K×D to a final concentration of 10 uM and 20 uM respectively and a final reaction volume of 30 ul, and allowed to proceed at RT for 180 min and the increase in fluorescence (RFU) (excitation at 280 nm, emission 550 nm) monitored using a Tecan Safire^2 plate reader. Data were normalised to percentage activity where % activity=(RFU test antibody−RFU low controls)/RFU high controls−RFU low controls)×100, where low controls contained all components except enzyme and high controls contained all components except antibody.
Antibody dose response curves were plotted using GraphPad prism software and fitted using a 4-parameter logistical model to return IC50 and other statistical parameters. The results are illustrated in FIGS. 29 to 33.

Assay [3] concerns the target T2, rat TG2 (Rattus norvegicus, UniProt Q9WVJ6).
T2 sequence (Q9WVJ6 1-686): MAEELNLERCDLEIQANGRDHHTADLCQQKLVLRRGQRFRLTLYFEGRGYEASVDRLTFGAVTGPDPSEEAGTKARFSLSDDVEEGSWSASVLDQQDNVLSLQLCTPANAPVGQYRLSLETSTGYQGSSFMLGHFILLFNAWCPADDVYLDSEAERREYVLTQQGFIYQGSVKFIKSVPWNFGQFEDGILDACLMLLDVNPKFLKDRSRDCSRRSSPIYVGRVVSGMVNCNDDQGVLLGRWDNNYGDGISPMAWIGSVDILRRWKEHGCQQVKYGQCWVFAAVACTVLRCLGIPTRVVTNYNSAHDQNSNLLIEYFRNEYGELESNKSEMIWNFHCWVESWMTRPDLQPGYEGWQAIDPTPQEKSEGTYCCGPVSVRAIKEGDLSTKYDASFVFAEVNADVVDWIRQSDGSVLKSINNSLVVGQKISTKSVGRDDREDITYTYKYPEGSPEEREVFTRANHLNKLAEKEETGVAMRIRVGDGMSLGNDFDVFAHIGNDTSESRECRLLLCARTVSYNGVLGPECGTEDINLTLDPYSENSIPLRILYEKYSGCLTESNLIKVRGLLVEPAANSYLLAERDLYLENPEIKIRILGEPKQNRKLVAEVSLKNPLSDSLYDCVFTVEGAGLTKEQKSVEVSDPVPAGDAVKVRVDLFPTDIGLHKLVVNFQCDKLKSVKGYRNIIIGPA
In words: 3H-putrescine incorporation TG activity assay with rat TG2. The note with it: amount of IgG required to inhibit 1 ng of TG2; 25 ng rat TG2. As for the experimental part:
as §1, §2

B1: DH2: murine monoclonal anti-TG2 IgG, Group 3 (amino acids 450 to 467); VL SEQ ID NO: 89, VH SEQ ID NO: 90 (antibody, V domains shown)
VH: QVTLKESGPGILQPSQTLSLTCSFSGFSLSTSGMGVSWIRQPSGKGLEWLAHIYWDDDKRYNPSLKSRLTISKDTSSNQVFLKITSVDTADTATYYCARSGTTAPFAYWGQGTLVTVSA
VL: QIVLTQSPAIMSASPGEKVTMTCSASSSVSYMYWYQQKPGSSPRLLIYDTSNLASGVPVRFSGSGSGTSYSLTISRMEAEDAATFYCQQWSSSPLTFGAGTKLELK
modifications: DH-2 heavy chain variable region; DH-2 light chain variable region
Take B1: the “hybridoma supernatant ability to inhibit TG2 activity” value in assay [1] is “able to inhibit TG2 activity”. Moreover, in assay [2], the “inhibition of human TG2 transamidation (in words)” value is listed as “consistently inhibited human TG2 transamidation, but with lower potency than group 1 antibodies”. Further, the “IC50 against rat TG2” value in assay [3] is 223 ng/mL.

B2: DD9: murine monoclonal anti-TG2 IgG, Group 3 (amino acids 450 to 467); VL SEQ ID NO: 87, VH SEQ ID NO: 88 (antibody, V domains shown)
VH: B1 VH with P42S, L69I, T75S, G101W, Y108F
VL: B1 VL with S30D, E78G, F85Y, S91N
modifications: DD-9 heavy chain variable region; DD-9 light chain variable region
As for B2, the “hybridoma supernatant ability to inhibit TG2 activity” value in assay [1] is “able to inhibit TG2 activity”. For the same molecule, the “inhibition of human TG2 transamidation (in words)” value in assay [2] is recorded as “consistently inhibited human TG2 transamidation, but with lower potency than group 1 antibodies”.
